# Measured values reported in paper PMC12820563.
# Some of the results follow. The list includes weakly bound sequences.
# Biological target: T1, MBP-FoxP3dN (UniProt Q99JB6)
# T1 sequence: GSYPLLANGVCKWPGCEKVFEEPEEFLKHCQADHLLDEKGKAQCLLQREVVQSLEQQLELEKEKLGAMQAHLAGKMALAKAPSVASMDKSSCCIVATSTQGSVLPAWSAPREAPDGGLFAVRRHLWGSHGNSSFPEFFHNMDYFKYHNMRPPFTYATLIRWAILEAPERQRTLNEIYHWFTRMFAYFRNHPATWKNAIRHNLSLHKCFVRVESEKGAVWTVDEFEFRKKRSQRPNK
# Test: PD-seq (MBP pull-down with sequencing)
# Conditions: 20 mM Tris-HCl pH 7.5, 100 mM NaCl, 1.5 mM MgCl2, 0.4 uM protein, 0.1 uM dsDNA library, 30 min, room temperature, amylose pull-down; high values mean tight binding; double strand, one strand shown
row,Sequence,binding signal (RPM ratio (pull-down/input))
1,GATGATTGTTCTCCCAGCTGATGAATTACGATTGTCGAGTAAACAAATTTTCCTAATCTTTCTGTTCAAGCGCCATCTAC,2.08
2,GATGATTGTTCTCCCAGCTGATGAATTGTCGGGCTCGAGTAAACAAATTTTCCTAATCTTTCTGTTCAAGCGCCATCTAC,0.296
3,GATGATTGTTCTCCCAGCTGATGAATTGCCAGTATCGAGTAAACAAATTTTCCTAATCTTTCTGTTCAAGCGCCATCTAC,0.761
4,GATGATTGTTCTCCCAGCTGATGAATTCTTCGGTTCGAGTAAACAAATTTTCCTAATCTTTCTGTTCAAGCGCCATCTAC,0.242
5,GATGATTGTTCTCCCAGCTGATGAATTGTATACGTCGAGTAAACAAATTTTCCTAATCTTTCTGTTCAAGCGCCATCTAC,4.38
6,GATGATTGTTCTCCCAGCTGATGAATTCCAATACTCGAGTAAACAAATTTTCCTAATCTTTCTGTTCAAGCGCCATCTAC,0.519
7,GATGATTGTTCTCCCAGCTGATGAATTTGCGGACTCGAGTAAACAAATTTTCCTAATCTTTCTGTTCAAGCGCCATCTAC,1
8,GATGATTGTTCTCCCAGCTGATGAATTGTCCCCATCGAGTAAACAAATTTTCCTAATCTTTCTGTTCAAGCGCCATCTAC,0.395
9,GATGATTGTTCTCCCAGCTGATGAATTAAATCCCTCGAGTAAACAAATTTTCCTAATCTTTCTGTTCAAGCGCCATCTAC,0.255
10,GATGATTGTTCTCCCAGCTGATGAATTCAGAGTATCGAGTAAACAAATTTTCCTAATCTTTCTGTTCAAGCGCCATCTAC,0.506
11,GATGATTGTTCTCCCAGCTGATGAATTGATAGGGTCGAGTAAACAAATTTTCCTAATCTTTCTGTTCAAGCGCCATCTAC,0.448
12,GATGATTGTTCTCCCAGCTGATGAATTTTAGCCGTCGAGTAAACAAATTTTCCTAATCTTTCTGTTCAAGCGCCATCTAC,0.479
13,GATGATTGTTCTCCCAGCTGATGAATTCGACGACTCGAGTAAACAAATTTTCCTAATCTTTCTGTTCAAGCGCCATCTAC,0.367
14,GATGATTGTTCTCCCAGCTGATGAATTTAGACTCTCGAGTAAACAAATTTTCCTAATCTTTCTGTTCAAGCGCCATCTAC,2.16
15,GATGATTGTTCTCCCAGCTGATGAATTCGCACACTCGAGTAAACAAATTTTCCTAATCTTTCTGTTCAAGCGCCATCTAC,0.484
16,GATGATTGTTCTCCCAGCTGATGAATTCGATGTGTCGAGTAAACAAATTTTCCTAATCTTTCTGTTCAAGCGCCATCTAC,3.69
17,GATGATTGTTCTCCCAGCTGATGAATTCGCACCCTCGAGTAAACAAATTTTCCTAATCTTTCTGTTCAAGCGCCATCTAC,0.48
18,GATGATTGTTCTCCCAGCTGATGAATTCGAGATATCGAGTAAACAAATTTTCCTAATCTTTCTGTTCAAGCGCCATCTAC,0.404
19,GATGATTGTTCTCCCAGCTGATGAATTGTAGTATTCGAGTAAACAAATTTTCCTAATCTTTCTGTTCAAGCGCCATCTAC,2.06
20,GATGATTGTTCTCCCAGCTGATGAATTAGGCGACTCGAGTAAACAAATTTTCCTAATCTTTCTGTTCAAGCGCCATCTAC,1.56
21,GATGATTGTTCTCCCAGCTGATGAATTGCGGGTATCGAGTAAACAAATTTTCCTAATCTTTCTGTTCAAGCGCCATCTAC,1.18

row,Sequence,binding signal (RPM ratio (pull-down/input))
1,GATGATTGTTCTCCCAGCTGATGAATTCGCTGCTTCGAGTAAACAAATTTTCCTAATCTTTCTGTTCAAGCGCCATCTAC,0.563
2,GATGATTGTTCTCCCAGCTGATGAATTCACGTACTCGAGTAAACAAATTTTCCTAATCTTTCTGTTCAAGCGCCATCTAC,0.409
3,GATGATTGTTCTCCCAGCTGATGAATTTCTCACTTCGAGTAAACAAATTTTCCTAATCTTTCTGTTCAAGCGCCATCTAC,0.293
4,GATGATTGTTCTCCCAGCTGATGAATTTCTGGCGTCGAGTAAACAAATTTTCCTAATCTTTCTGTTCAAGCGCCATCTAC,0.366
5,GATGATTGTTCTCCCAGCTGATGAATTTCCTAAGTCGAGTAAACAAATTTTCCTAATCTTTCTGTTCAAGCGCCATCTAC,0.192
6,GATGATTGTTCTCCCAGCTGATGAATTTGACAGATCGAGTAAACAAATTTTCCTAATCTTTCTGTTCAAGCGCCATCTAC,0.211
7,GATGATTGTTCTCCCAGCTGATGAATTCAGGCGCTCGAGTAAACAAATTTTCCTAATCTTTCTGTTCAAGCGCCATCTAC,0.482
8,GATGATTGTTCTCCCAGCTGATGAATTACAAGTTTCGAGTAAACAAATTTTCCTAATCTTTCTGTTCAAGCGCCATCTAC,0.529
9,GATGATTGTTCTCCCAGCTGATGAATTTAAACTCTCGAGTAAACAAATTTTCCTAATCTTTCTGTTCAAGCGCCATCTAC,0.359
10,GATGATTGTTCTCCCAGCTGATGAATTAGCAATTTCGAGTAAACAAATTTTCCTAATCTTTCTGTTCAAGCGCCATCTAC,1.59
11,GATGATTGTTCTCCCAGCTGATGAATTTGCGTCATCGAGTAAACAAATTTTCCTAATCTTTCTGTTCAAGCGCCATCTAC,2.32
12,GATGATTGTTCTCCCAGCTGATGAATTAAAAACGTCGAGTAAACAAATTTTCCTAATCTTTCTGTTCAAGCGCCATCTAC,0.293
13,GATGATTGTTCTCCCAGCTGATGAATTAATCTTCTCGAGTAAACAAATTTTCCTAATCTTTCTGTTCAAGCGCCATCTAC,0.334
14,GATGATTGTTCTCCCAGCTGATGAATTGTCTGGATCGAGTAAACAAATTTTCCTAATCTTTCTGTTCAAGCGCCATCTAC,0.255
15,GATGATTGTTCTCCCAGCTGATGAATTTCCGAAGTCGAGTAAACAAATTTTCCTAATCTTTCTGTTCAAGCGCCATCTAC,0.153
16,GATGATTGTTCTCCCAGCTGATGAATTTAGGTTCTCGAGTAAACAAATTTTCCTAATCTTTCTGTTCAAGCGCCATCTAC,0.889
17,GATGATTGTTCTCCCAGCTGATGAATTGTTAAGATCGAGTAAACAAATTTTCCTAATCTTTCTGTTCAAGCGCCATCTAC,0.532
18,GATGATTGTTCTCCCAGCTGATGAATTTTAGCAGTCGAGTAAACAAATTTTCCTAATCTTTCTGTTCAAGCGCCATCTAC,0.433
19,GATGATTGTTCTCCCAGCTGATGAATTAGCGACTTCGAGTAAACAAATTTTCCTAATCTTTCTGTTCAAGCGCCATCTAC,0.891
20,GATGATTGTTCTCCCAGCTGATGAATTAACCGCATCGAGTAAACAAATTTTCCTAATCTTTCTGTTCAAGCGCCATCTAC,0.862
21,GATGATTGTTCTCCCAGCTGATGAATTTCGCTACTCGAGTAAACAAATTTTCCTAATCTTTCTGTTCAAGCGCCATCTAC,1.8

row,Sequence,binding signal (RPM ratio (pull-down/input))
1,GATGATTGTTCTCCCAGCTGATGAATTGTGGAGCTCGAGTAAACAAATTTTCCTAATCTTTCTGTTCAAGCGCCATCTAC,0.355
2,GATGATTGTTCTCCCAGCTGATGAATTCAGCTGGTCGAGTAAACAAATTTTCCTAATCTTTCTGTTCAAGCGCCATCTAC,0.549
3,GATGATTGTTCTCCCAGCTGATGAATTACAAAGTTCGAGTAAACAAATTTTCCTAATCTTTCTGTTCAAGCGCCATCTAC,0.36
4,GATGATTGTTCTCCCAGCTGATGAATTACAGGATTCGAGTAAACAAATTTTCCTAATCTTTCTGTTCAAGCGCCATCTAC,0.352
5,GATGATTGTTCTCCCAGCTGATGAATTGACAATTTCGAGTAAACAAATTTTCCTAATCTTTCTGTTCAAGCGCCATCTAC,0.434
6,GATGATTGTTCTCCCAGCTGATGAATTGCTTGCTTCGAGTAAACAAATTTTCCTAATCTTTCTGTTCAAGCGCCATCTAC,1.19
7,GATGATTGTTCTCCCAGCTGATGAATTACCTCATTCGAGTAAACAAATTTTCCTAATCTTTCTGTTCAAGCGCCATCTAC,0.4
8,GATGATTGTTCTCCCAGCTGATGAATTAGTTCACTCGAGTAAACAAATTTTCCTAATCTTTCTGTTCAAGCGCCATCTAC,0.55
9,GATGATTGTTCTCCCAGCTGATGAATTAATGGTGTCGAGTAAACAAATTTTCCTAATCTTTCTGTTCAAGCGCCATCTAC,1.15
10,GATGATTGTTCTCCCAGCTGATGAATTTTAAGAGTCGAGTAAACAAATTTTCCTAATCTTTCTGTTCAAGCGCCATCTAC,0.228
11,GATGATTGTTCTCCCAGCTGATGAATTCTCCCTCTCGAGTAAACAAATTTTCCTAATCTTTCTGTTCAAGCGCCATCTAC,0.238
12,GATGATTGTTCTCCCAGCTGATGAATTTTAGACTTCGAGTAAACAAATTTTCCTAATCTTTCTGTTCAAGCGCCATCTAC,0.472
13,GATGATTGTTCTCCCAGCTGATGAATTTTCTCCTTCGAGTAAACAAATTTTCCTAATCTTTCTGTTCAAGCGCCATCTAC,0.184
14,GATGATTGTTCTCCCAGCTGATGAATTCTAATCATCGAGTAAACAAATTTTCCTAATCTTTCTGTTCAAGCGCCATCTAC,0.567
15,GATGATTGTTCTCCCAGCTGATGAATTTTTTGGTTCGAGTAAACAAATTTTCCTAATCTTTCTGTTCAAGCGCCATCTAC,0.282
16,GATGATTGTTCTCCCAGCTGATGAATTACATGAGTCGAGTAAACAAATTTTCCTAATCTTTCTGTTCAAGCGCCATCTAC,0.476
17,GATGATTGTTCTCCCAGCTGATGAATTAATTACCTCGAGTAAACAAATTTTCCTAATCTTTCTGTTCAAGCGCCATCTAC,0.796
18,GATGATTGTTCTCCCAGCTGATGAATTTCATTACTCGAGTAAACAAATTTTCCTAATCTTTCTGTTCAAGCGCCATCTAC,1.32
19,GATGATTGTTCTCCCAGCTGATGAATTGCTCACGTCGAGTAAACAAATTTTCCTAATCTTTCTGTTCAAGCGCCATCTAC,0.552
20,GATGATTGTTCTCCCAGCTGATGAATTCGTCCGATCGAGTAAACAAATTTTCCTAATCTTTCTGTTCAAGCGCCATCTAC,0.204
21,GATGATTGTTCTCCCAGCTGATGAATTAGCAATATCGAGTAAACAAATTTTCCTAATCTTTCTGTTCAAGCGCCATCTAC,1.34
